According to patent US11498899B2, “Nitrone herbicides” (FMC Corporation, priority 2016, dated 2022):

System: sedge, umbrella (small-flower umbrella sedge, Cyperus difformis)
Experiment: Test B flooded paddy test, visual rating 0-100
Conditions: Flood, 250 g ai/ha, applied to paddy water, rated after 13 to 15 days

Structure (SMILES)	Sedge, Umbrella plant response rating (0 to 100 scale)
CC1=[N+]([O-])C(C(=O)Nc2cccc(F)c2F)C(c2cccc(Cl)c2F)C1 (stereo not drawn) [Compound 99]	0
COc1cc(C2CC(C)=[N+]([O-])C2C(=O)Nc2cccc(F)c2F)ccc1C(F)(F)F (stereo not drawn) [Compound 100]	0
CC1=[N+]([O-])C(C(=O)Nc2cccc(F)c2F)C(c2ccc(C(F)(F)F)cc2F)C1 (stereo not drawn) [Compound 101]	0
